# Hit rate of the full screen: of about 270,000 compounds, about 5,800 (2.1%) were called active. The inconclusive results got no clear call from the source; some entries with a clear call stand among them for comparison. The call rests on the fitted dose curve; in most records, active means well fitted inhibition curve with a large enough effect; inconclusive means small, poorly fitted or top-dose-only effect; inactive means flat fitted curve, though single readings scatter. A potency beside an inconclusive call is a rough fit, not a confirmed value.
# Target: Microtubule-associated protein tau (Homo sapiens) (UniProt P10636)
# Chain of UniProt P10636 (P10636 whole entry, looked up): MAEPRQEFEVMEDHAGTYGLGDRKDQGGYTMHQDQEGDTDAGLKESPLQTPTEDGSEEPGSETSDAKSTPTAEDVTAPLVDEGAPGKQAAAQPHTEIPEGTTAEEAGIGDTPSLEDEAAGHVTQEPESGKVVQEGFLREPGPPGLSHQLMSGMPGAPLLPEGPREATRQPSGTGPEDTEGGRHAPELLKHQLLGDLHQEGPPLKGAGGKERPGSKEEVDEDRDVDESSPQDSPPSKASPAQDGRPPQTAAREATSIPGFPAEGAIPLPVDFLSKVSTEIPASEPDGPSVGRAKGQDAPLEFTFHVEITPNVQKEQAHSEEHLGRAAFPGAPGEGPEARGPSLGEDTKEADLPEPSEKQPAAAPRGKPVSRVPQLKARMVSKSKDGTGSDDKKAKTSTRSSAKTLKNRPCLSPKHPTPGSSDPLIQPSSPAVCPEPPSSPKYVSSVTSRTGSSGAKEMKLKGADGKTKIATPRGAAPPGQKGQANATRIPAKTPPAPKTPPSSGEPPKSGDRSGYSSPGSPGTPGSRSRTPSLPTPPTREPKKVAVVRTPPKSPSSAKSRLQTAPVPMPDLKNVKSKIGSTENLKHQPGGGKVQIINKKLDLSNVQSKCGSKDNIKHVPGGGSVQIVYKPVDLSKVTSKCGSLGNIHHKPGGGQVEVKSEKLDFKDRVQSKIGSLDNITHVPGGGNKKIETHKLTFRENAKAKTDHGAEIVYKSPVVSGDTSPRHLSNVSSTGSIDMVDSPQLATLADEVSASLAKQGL
# Test: qHTS for Inhibitors of Tau Fibril Formation, Thioflavin T Binding; further: nearly all actives have a fitted effect of over 55% in size
# Conditions: recombinant tau K18 P301L, heparin-induced fibrillization, ThT fluorescence; series mostly up to 57.4 µM
# Procedure, shortened: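 Using a mix of unlabeled (15 uM) and Alexa 594-labeled (0.24 uM) tau K18 P301L, heparin-triggered fibrillization over 6 hr at 37 C was scored by ThT fluorescence.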
# On the % scale 0 is the no-effect control and ±100 the full control effect; potency means the concentration at half of the fitted maximal effect; tags describe the fitted curve by direction and shape.
SMILES,Potency,"activity, negative = inhibition"
N#C/C(=C/c1ccc(-c2cc(C(=O)O)cc(C(=O)O)c2)o1)c1nc2ccccc2s1,"inconclusive: 12.6 µM [inhibitor, partial curve]",–
Nc1ccc(Cc2ccc(N)c(O)c2)cc1O,active: 14.1 µM,–
O=C(NCCCCNC(=O)c1cccs1)c1cccs1,inactive,–
CSc1nc(-c2ccco2)nn1C(=O)Cc1ccccc1,inactive,–
CN1CCc2c(sc(NC(=O)c3ccc(S(=O)(=O)N4CCOCC4)cc3)c2C(N)=O)C1,"inconclusive: 22.4 µM [inhibitor, single point]",–
COc1cccc(CNC(=O)CSc2c3c(nc4ccc(Cl)cc24)CCCC3)c1OC,"inconclusive: 31.6 µM [inhibitor, single point]",–
N#C/C(=C\c1ccc(O)c(O)c1)C(=O)OCCc1cccs1,active: 14.1 µM,–
CC(=O)c1ccc(N2CCC(c3cc(-c4ccc(Cl)cc4)n[nH]3)CC2)c([N+](=O)[O-])c1,active: 4.47 µM,–
Oc1ccc(-c2nnc(-c3ccc(O)cc3)nn2)cc1,"inconclusive: 3.16 µM [inhibitor, full curve]",–
CCCC1CCC(=NNS(=O)(=O)c2ccc(C)c([N+](=O)[O-])c2)CC1 (centres undefined),inactive,–
Cc1ccccc1CNC(=O)c1ccc(Cn2c(SCc3cccc(F)c3)nc3cccnc32)cc1,inactive,–
CCc1ccc2c(c1)C(=O)c1ccccc1C2=O,"inconclusive: 31.6 µM [inhibitor, single point]",–
COc1ccc2c(c1)C(SCC(=O)NCCc1ccccc1)CC(C)(C)O2 (centres undefined),"inconclusive: 39.8 µM [inhibitor, single point]",–
CCOC(=O)c1nc(Nc2ccc(C(=O)OCC(C)C)cc2)c2ccccc2n1,inactive,–
CC(=O)N(C(C)=O)c1nc(-c2ccccc2)cn1/N=C/c1cccc([N+](=O)[O-])c1,"inconclusive: 15.8 µM [inhibitor, partial curve]",–
COc1ccc2c(c1)OCC(Cc1ccc(OC)c(O)c1)C2=O (centres undefined),"inconclusive: 15.8 µM [inhibitor, partial curve]",–
COc1ccc(OC)c2sc(NC(=O)CCSc3ccccc3)nc12,"inconclusive: 2.82 µM [inhibitor, single point]",–
CO[C@H]1COC(=O)C/C=C\[C@H](C)[C@H](OC)COC(=O)[C@@H](C)NC(=O)C/C=C\[C@@H]1C,"inconclusive: 0.112 µM [inhibitor, full curve, poor fit]",–
COC(=O)CCC(=O)OC1(C)C(=O)C=C2C=C(C3CC3)N(Cc3ccc4c(c3)OCO4)C=C2C1=O (centres undefined),"inconclusive: 14.1 µM [inhibitor, partial curve]",inactive: -23.5% [at 11.5 µM]
CC(C)CC(=O)NCc1nc2cccnc2n1Cc1ccccc1,inactive,–
Cc1onc(-c2ccccc2Cl)c1C(=O)Nc1nnc(-c2ccc(Br)cc2)s1,"inconclusive: 17.8 µM [inhibitor, partial curve, poor fit]",–
CSc1cccc(-c2nnc(NC(=O)c3ccc4c(c3)OCCO4)o2)c1,"inconclusive: 0.562 µM [inhibitor, full curve]",–
Cc1ccc2[nH]c3c(c2c1)CN(C(=O)CN1CCN(c2cccc(C)c2C)CC1)CC3,"inconclusive: 15.8 µM [inhibitor, partial curve]",–

SMILES,Potency,"activity, negative = inhibition"
Cc1cc(C(=O)CCl)c(C)n1-c1cccc(S(=O)(=O)N2CCOCC2)c1,"inconclusive: 22.4 µM [inhibitor, partial curve, poor fit]",–
Cc1cc(OC(=O)c2ccccc2)n(CCC#N)n1,"inconclusive: 14.1 µM [inhibitor, partial curve]",–
Cc1ccsc1/C=N/NC(=O)CO,inactive,–
CCn1c2ccccc2c2cc(NC(=O)c3ccc([N+](=O)[O-])cc3)ccc21,"inconclusive: 0.562 µM [inhibitor, full curve]",–
CC1=NN(c2ccccc2)C(=O)/C1=C\c1cn(-c2ccccc2)nc1C,"inconclusive: 12.6 µM [inhibitor, partial curve]",–
NC(=O)c1ccc(N2CCN(c3ccccc3F)CC2)c([N+](=O)[O-])c1,active: 15.8 µM,–
COc1ccc(OCCCN2CCCC(C)C2)cc1 (centres undefined),inactive,–
Cc1ccc(S(=O)(=O)Nc2ccc(S(=O)(=O)Nc3cc(C)nc(C)n3)cc2)cc1,inactive,–
C=CCNc1nc(-c2ccc(O)c(C(N)=O)c2)cs1,"inconclusive: 25.1 µM [inhibitor, partial curve]",–
c1ccc(C2=Nc3c(ccc4ccccc34)C(c3ccncc3)=NN2)cc1,"inconclusive: 17.8 µM [inhibitor, partial curve]",–
C/C(=N\OC(=O)c1ccc(Cl)c(Cl)c1)c1sc(C)nc1C,"inconclusive: 1.58 µM [inhibitor, full curve]",–
O=C(COC(=O)/C=C/c1ccco1)Nc1ccccc1,inactive,–
CCc1ccccc1NC(=O)c1nnn(CC(=O)Nc2ccccc2C)c1N,inactive,–
CC(=O)c1c(COC(=O)c2ccccc2)nc2ccccc2[n+]1[O-],"inconclusive: 31.6 µM [inhibitor, single point]",–
Cc1cc([N+](=O)[O-])cc(/C=N/n2c(C)nc3ccccc3c2=O)c1O,"inconclusive: 28.2 µM [inhibitor, partial curve]",–
S=C(c1ccc(-c2ccccc2Cl)o1)N1CCCCC1,"inconclusive: 17.8 µM [inhibitor, partial curve]",–
O=C(N/N=C/c1cc(Br)c(Br)o1)C(O)c1ccccc1 (centres undefined),"inconclusive: 20 µM [inhibitor, single point]",–
O=C(Cn1cnc2cc([N+](=O)[O-])ccc2c1=O)Nc1ccccc1Cl,"inconclusive: 44.7 µM [inhibitor, single point]",–
COc1cccc(C(=O)CC(=O)C(=O)Nc2cc(Cl)c(OC)cc2OC)c1,"inconclusive: 20 µM [inhibitor, partial curve]",–
CC(Sc1nnc(C(C)N(C)C)n1-c1ccc(Cl)cc1)C(=O)Nc1ccc2c(c1)OCO2 (centres undefined),"inconclusive: 28.2 µM [inhibitor, partial curve, poor fit]",–
COc1c(O)ccc(/C=C(\C#N)c2nc3ccccc3[nH]2)c1[N+](=O)[O-],active: 7.08 µM,–
COc1ccc(N2CCN(C(=O)c3cc(S(=O)(=O)N4CCCCCC4)cn3C)CC2)cc1,inactive,–
O=C(Nc1ccc(N2CCOCC2)c(Cl)c1)c1cc2ccccc2o1,"inconclusive: 12.6 µM [inhibitor, partial curve]",–

SMILES,Potency,"activity, negative = inhibition"
c1ccc(N2CCN(c3ncnc4sc5c(c34)CCC5)CC2)cc1,"inconclusive: 15.8 µM [inhibitor, partial curve]",–
COc1ccccc1NC(=O)CSC1=NCCN1,"inconclusive: 39.8 µM [inhibitor, single point]",–
O=c1c2cnn(-c3ccccc3)c2nnn1/N=C/c1cccnc1,inactive,–
O=C(COC(=O)Cn1cnc2ccccc21)Nc1cccc2c1C(=O)c1ccccc1C2=O,"inconclusive: 14.1 µM [inhibitor, partial curve]",–
CCOC(=O)c1ccc(NC(=O)CSc2ccc(-c3sc(C)nc3C)nn2)cc1,"inconclusive: 2.82 µM [inhibitor, full curve, poor fit]",–
CN(C)c1oc(-c2ccc(OCc3ccccc3)cc2)nc1C#N,"inconclusive: 10 µM [inhibitor, partial curve]",–
COc1ccc(NC(=O)Nc2ccc3nc(C)c(C)nc3c2)cc1,"inconclusive: 7.94 µM [inhibitor, partial curve]",–
O=[N+]([O-])c1ccc(N=Cc2ccc(Br)c([N+](=O)[O-])c2)cc1,"inconclusive: 22.4 µM [inhibitor, partial curve]",–
Nc1ccc(N2CCOCC2)c(Cl)c1,"inconclusive: 15.8 µM [inhibitor, partial curve]",–
O=[N+]([O-])c1ccc(Nc2nc(NC3CCCCC3)nc(N3CCCC3)n2)cc1,"inconclusive: 25.1 µM [inhibitor, partial curve, poor fit]",–
C/C=C/C=C\C(=O)Nc1cccc(C2=NOC3(C2)C[C@@H](C(N)=O)N(C(=O)c2cc([N+](=O)[O-])cc([N+](=O)[O-])c2)C3)c1 (some centres undefined),inactive,–
Cc1nn(Cc2cccc(C(=O)NC34CC5CC(CC(C5)C3)C4)c2)c(C)c1Br,"inconclusive: 25.1 µM [inhibitor, single point]",–
NC1=Nc2cccc3cccc1c23,"inconclusive: 12.6 µM [inhibitor, partial curve]",–
O=C(O)[C@@H]1CN[C@@H](C(=O)O)C1,inactive,–
O=C(CC1(c2ccc(Cl)cc2)C2CC3CC(C2)CC1C3)NCCO (centres undefined),inactive,–
CCOc1ccccc1NC(=O)COC(=O)/C=C/c1ccc(OC)c(OC)c1,"inconclusive: 28.2 µM [inhibitor, partial curve, poor fit]",–
Cc1cc(C(F)(F)F)nc(SCC(=O)NC2=NC(=O)C(C)S2)n1 (centres undefined),"inconclusive: 17.8 µM [inhibitor, partial curve]",–
CCN(N=Nc1cccc([N+](=O)[O-])c1)c1cccc([N+](=O)[O-])c1,"inconclusive: 3.55 µM [inhibitor, full curve, poor fit]",–
COC1CCN(C(=O)c2ccc(OC3CCN(Cc4ccccn4)CC3)cc2)CC1,inactive,–
N#C/C(=C\c1c(Cl)cccc1Cl)c1nn(-c2ccccc2)c(-n2cccc2)c1C#N,"inconclusive: 35.5 µM [inhibitor, single point]",–
COC(=O)c1ccc(C(=O)Nc2ccc(C(C)C)cc2N)cc1,"inconclusive: 17.8 µM [inhibitor, partial curve]",–
CCOC(=O)C1=C(N)OC(CCl)=C(C#N)C1c1ccsc1 (centres undefined),"inconclusive: 12.6 µM [inhibitor, partial curve]",–

# — PubChem BioAssay AID1460 (National Center for Advancing Translational Sciences (NCATS), 2008)
